# Laboratory results published in the supplement of paper PMC8728848.
# This is one part of the list.
# B1: CAA (Caragana arborescens) (protein)
# chain: VAVEFDTFDNPDWDPRTKHIGIDVNSIRSNKTTQWGFWNRQVADVDISYEASSKTLNVSLYYPGESYIVTDVVDLKDILPEWVRIGF
# What was measured:
# Assay in all cases: glycan array binding signal (z-score within array); higher = stronger binding
# Details in all cases: glycan notation: IUPAC condensed, linker removed
# [1] = molecular target: Neu5Ac(a2-6)GlcNAc(b1-4)GlcNAc(b1-4)GlcNAc
# In short: (§1)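 The binding signal is a Z-score computed within each array. Data were drawn from 3228 arrays in the Consortium for Functional Glycomics database, restricted to those with a known protein sequence. Scores were averaged over arrays of the same protein sequence at different concentrations or buffers, and over linkers, and negative values can be taken as non-binding.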
# Neu5Ac(a2-8)Neu5Ac = molecular target: Neu5Ac(a2-8)Neu5Ac
# In short: as §1
# [2] = molecular target: Neu5Ac(a2-8)Neu5Ac(a2-3)Gal(b1-3)GalNAc(b1-4)[Neu5Ac(a2-3)]Gal(b1-4)Glc
# In short: as §1
# [3] = molecular target: Neu5Ac(a2-8)Neu5Ac(a2-3)Gal(b1-3)GalNAc(b1-4)[Neu5Ac(a2-8)Neu5Ac(a2-3)]Gal(b1-4)Glc
# In short: as §1
# [4] = molecular target: Neu5Ac(a2-8)Neu5Ac(a2-3)Gal(b1-4)Glc
# In short: as §1
# [5] = molecular target: Neu5Ac(a2-8)Neu5Ac(a2-3)Gal(b1-4)GlcNAc
# In short: as §1
# [6] = molecular target: Neu5Ac(a2-8)Neu5Ac(a2-3)[Gal(b1-3)GalNAc(b1-4)]Gal(b1-4)Glc
# In short: as §1
# [7] = molecular target: Neu5Ac(a2-8)Neu5Ac(a2-3)[GalNAc(b1-4)]Gal(b1-4)Glc
# In short: as §1
# [8] = molecular target: Neu5Ac(a2-8)Neu5Ac(a2-8)Neu5Ac
# In short: as §1
# [9] = molecular target: Neu5Ac(a2-8)Neu5Ac(a2-8)Neu5Ac(a2-3)Gal(b1-4)Glc
# In short: as §1
# [10] = molecular target: Neu5Ac(a2-8)Neu5Ac(a2-8)Neu5Ac(a2-3)[Gal(b1-3)GalNAc(b1-4)]Gal(b1-4)Glc
# In short: as §1
# [11] = molecular target: Neu5Ac(a2-8)Neu5Ac(a2-8)Neu5Ac(a2-3)[GalNAc(b1-4)]Gal(b1-4)Glc
# In short: as §1
# [12] = molecular target: Neu5Ac(a2-8)Neu5Ac(a2-8)Neu5Ac(a2-8)Neu5Ac(a2-3)[GalNAc(b1-4)]Gal(b1-4)Glc
# In short: as §1
# [13] = molecular target: Neu5Ac(a2-8)Neu5Gc(a2-3)Gal(b1-4)GlcNAc
# In short: as §1
# [14] = molecular target: Neu5Ac(b2-6)Gal(b1-4)GlcNAc
# In short: as §1
# Neu5Ac(b2-6)GalNAc = molecular target: Neu5Ac(b2-6)GalNAc
# In short: as §1
# [15] = molecular target: Neu5Ac9Ac(a2-3)Gal(b1-3)GlcNAc
# In short: as §1
# [16] = molecular target: Neu5Ac9Ac(a2-3)Gal(b1-4)GlcNAc
# In short: as §1
# [17] = molecular target: Neu5Ac9Ac(a2-6)Gal(b1-4)GlcNAc
# In short: as §1
# [18] = molecular target: Neu5Gc(a2-3)Gal(b1-3)GlcNAc
# In short: as §1
# [19] = molecular target: Neu5Gc(a2-3)Gal(b1-3)[Fuc(a1-4)]GlcNAc
# In short: as §1
# Neu5Gc(a2-3)Gal(b1-4)Glc = molecular target: Neu5Gc(a2-3)Gal(b1-4)Glc
# In short: as §1
# [20] = molecular target: Neu5Gc(a2-3)Gal(b1-4)GlcNAc
# In short: as §1
# [21] = molecular target: Neu5Gc(a2-3)Gal(b1-4)GlcNAc(b1-3)Gal(b1-4)GlcNAc(b1-2)Man(a1-3)[Neu5Gc(a2-3)Gal(b1-4)GlcNAc(b1-3)Gal(b1-4)GlcNAc(b1-2)Man(a1-6)]Man(b1-4)GlcNAc(b1-4)GlcNAc
# In short: as §1
# [22] = molecular target: Neu5Gc(a2-3)Gal(b1-4)[Fuc(a1-3)]GlcNAc
# In short: as §1
# [23] = molecular target: Neu5Gc(a2-6)Gal(b1-4)GlcNAc
# In short: as §1
# Neu5Gc(a2-6)GalNAc = molecular target: Neu5Gc(a2-6)GalNAc
# In short: as §1
# [24] = molecular target: Neu5Gc(a2-8)Neu5Ac(a2-3)Gal(b1-4)GlcNAc
# In short: as §1
# [25] = molecular target: Neu5Gc(a2-8)Neu5Gc(a2-3)Gal(b1-4)GlcNAc
# In short: as §1
# [26] = molecular target: Neu5Gc(a2-8)Neu5Gc(a2-3)Gal(b1-4)GlcNAc(b1-3)Gal(b1-4)GlcNAc
# In short: as §1
# [27] = molecular target: Neu5Gc(a2-8)Neu5Gc(a2-6)Gal(b1-4)GlcNAc
# In short: as §1
# [28] = molecular target: Neu5Gc(b2-6)Gal(b1-4)GlcNAc
# In short: as §1
binder,measurement,setting,value
B1,glycan array binding signal (z-score),[1],-0.244
same,glycan array binding signal (z-score),Neu5Ac(a2-8)Neu5Ac,-0.238
same,glycan array binding signal (z-score),[2],-0.246
same,glycan array binding signal (z-score),[3],-0.252
same,glycan array binding signal (z-score),[4],-0.245
same,glycan array binding signal (z-score),[5],-0.248
same,glycan array binding signal (z-score),[6],-0.25
same,glycan array binding signal (z-score),[7],-0.245
same,glycan array binding signal (z-score),[8],-0.249
same,glycan array binding signal (z-score),[9],-0.245
same,glycan array binding signal (z-score),[10],-0.226
same,glycan array binding signal (z-score),[11],-0.23
same,glycan array binding signal (z-score),[12],-0.245
same,glycan array binding signal (z-score),[13],-0.246
same,glycan array binding signal (z-score),[14],-0.237
same,glycan array binding signal (z-score),Neu5Ac(b2-6)GalNAc,-0.245
same,glycan array binding signal (z-score),[15],-0.244
same,glycan array binding signal (z-score),[16],-0.224
same,glycan array binding signal (z-score),[17],-0.245
same,glycan array binding signal (z-score),[18],-0.242
same,glycan array binding signal (z-score),[19],-0.241
same,glycan array binding signal (z-score),Neu5Gc(a2-3)Gal(b1-4)Glc,-0.237
same,glycan array binding signal (z-score),[20],-0.238
same,glycan array binding signal (z-score),[21],-0.242
same,glycan array binding signal (z-score),[22],-0.243
same,glycan array binding signal (z-score),[23],-0.242
same,glycan array binding signal (z-score),Neu5Gc(a2-6)GalNAc,-0.233
same,glycan array binding signal (z-score),[24],-0.253
same,glycan array binding signal (z-score),[25],-0.236
same,glycan array binding signal (z-score),[26],-0.245
same,glycan array binding signal (z-score),[27],-0.252
same,glycan array binding signal (z-score),[28],-0.237
